The campaign covered roughly 3,200 compounds. About 75 (2%) showed an effect of 50% or more. This is one part of the list.
test system: T1, S. aureus MSSA476; design: species or system S. aureus MSSA476 (TSB) or V. cholerae SAD30 (LB); 384-well bacterial growth screen at 25 uM, OD600 relative to DMSO control; details: relative growth, OD600, TSB; 25 µM; inhibitor
T1 construct: MSSA476

Point of comparison: `O=C(CCl)Nc1ccccc1OC(F)F` [4-N09, 2-chloro-N-[2-(difluoromethoxy)phenyl]acetamide], “% of control remaining” value 91.8533%. Against it:
- C=CC(=O)NCc1cnc(N2CCOCC2)s1 [1-M03, N-{[2-(morpholin-4-yl)-1,3-thiazol-5-yl]methyl}prop-2-enamide] — higher, 100.571%
- C=CC(=O)N(C)CC(=O)N1CCCCC1c1nc(C)no1 (centres unmarked) [3-K17, N-methyl-N-{2-[2-(3-methyl-1,2,4-oxadiazol-5-yl)piperidin-1-yl]-2-oxoethyl}prop-2-enamide] — higher, 125.033%
- COc1ccc2[nH]cc(C3=CCN(C(=O)C=CCN(C)C)CC3)c2c1 [10-F03, 4-(dimethylamino)-1-[4-(5-methoxy-1H-indol-3-yl)-1,2,3,6-tetrahydropyridin-1-yl]but-2-en-1-one] — lower, 87.8125%
- C=CC(=O)NCCn1nc(C)cc1C [3-M13, N-[2-(3,5-dimethyl-1H-pyrazol-1-yl)ethyl]prop-2-enamide] — higher, 91.946%
- C=CC(=O)N(C)c1ccccc1C(=O)NC [2-O18, N-methyl-2-(N-methylprop-2-enamido)benzamide] — higher, 115.231%
- N#CC(C(=O)NC1CCCCC1)=C1N=C(N)c2ccccc21 [9-N06, 2-(3-amino-1H-isoindol-1-ylidene)-2-cyano-N-cyclohexylacetamide] — higher, 100.375%
- COCCNC(=O)C(C#N)=Cc1c(Cl)cccc1Cl [8-O13, 2-cyano-3-(2,6-dichlorophenyl)-N-(2-methoxyethyl)prop-2-enamide] — higher, 150.373%
- O=C(CCl)NC1CCCc2c1cnn2Cc1ccccc1 (centres unmarked) [7-F20, N-(1-benzyl-4,5,6,7-tetrahydro-1H-indazol-4-yl)-2-chloroacetamide] — higher, 99.2151%
- COc1cccc(NC(=O)C(C#N)=Cc2cccc(Cl)c2Cl)c1 [8-F06, 2-cyano-3-(2,3-dichlorophenyl)-N-(3-methoxyphenyl)prop-2-enamide] — lower, 81.3278%
- COC(=O)c1c(C(=O)CCl)c(C)n(C2CC2)c1C [10-H03, methyl 4-(2-chloroacetyl)-1-cyclopropyl-2,5-dimethyl-1H-pyrrole-3-carboxylate] — higher, 97.1875%
- COc1ccc(C=C(C#N)C(=O)Nc2ccccc2OC)cc1O [8-J19, 2-cyano-3-(3-hydroxy-4-methoxyphenyl)-N-(2-methoxyphenyl)prop-2-enamide] — higher, 100.249%
- CC(Cl)C(=O)c1c(N)n(C)c(=O)n(C)c1=O (centres unmarked) [10-F22, 6-amino-5-(2-chloropropanoyl)-1,3-dimethyl-1,2,3,4-tetrahydropyrimidine-2,4-dione] — higher, 118.75%
- C=CC(=O)N(C)CC(=O)N1CCC(c2nc(-c3ccccc3)n[nH]2)CC1 [2-H20, N-methyl-N-{2-oxo-2-[4-(3-phenyl-1H-1,2,4-triazol-5-yl)piperidin-1-yl]ethyl}prop-2-enamide] — higher, 132.985%
- N#CC(=Cc1cnn(Cc2ccccc2)c1)C(=O)Nc1nccs1 [9-M03, 3-(1-benzyl-1H-pyrazol-4-yl)-2-cyano-N-(1,3-thiazol-2-yl)prop-2-enamide] — higher, 106.667%
- C=CC(=O)N(Cc1cccc2ccoc12)C1CCSCC1 [1-D04, N-[(1-benzofuran-7-yl)methyl]-N-(thian-4-yl)prop-2-enamide] — lower, 80.8791%
- CN(C)c1ccc(C=C(C#N)C(=O)NCc2ccco2)cc1 [9-D10, 2-cyano-3-[4-(dimethylamino)phenyl]-N-[(furan-2-yl)methyl]prop-2-enamide] — higher, 96.779%
- O=C(CCl)Cc1cccc(F)c1F [10-K17, 1-chloro-3-(2,3-difluorophenyl)propan-2-one] — higher, 103.125%
- C=CC(=O)Nc1ccnc(OC2CCCCC2)c1 [2-A04, N-[2-(cyclohexyloxy)pyridin-4-yl]prop-2-enamide] — higher, 148.651%
- O=C(CCl)Nc1ccc(N=Nc2ccccc2)cc1 [4-C11, 2-chloro-N-[4-(2-phenyldiazen-1-yl)phenyl]acetamide] — lower, 86.5174%
- C=CC(=O)N(Cc1ccc(=O)n(C)c1)C1CCCc2ccccc21 (centres unmarked) [1-B17, N-[(1-methyl-6-oxo-1,6-dihydropyridin-3-yl)methyl]-N-(1,2,3,4-tetrahydronaphthalen-1-yl)prop-2-enamide] — higher, 111.824%
- COC(=O)c1cc(C(=O)CCl)c(C)o1 [10-G13, methyl 4-(2-chloroacetyl)-5-methylfuran-2-carboxylate] — higher, 140.625%
- C=CC(=O)NCCCn1cnc2c1CCCC2 [3-K20, N-[3-(4,5,6,7-tetrahydro-1H-1,3-benzodiazol-1-yl)propyl]prop-2-enamide] — lower, 90.2046%
- C=CC(=O)N1CCC(C(=O)N[C@@H]2C[C@H]2c2ccc(Cl)c(F)c2)CC1 [3-B14, N-[(1R,2S)-2-(4-chloro-3-fluorophenyl)cyclopropyl]-1-(prop-2-enoyl)piperidine-4-carboxamide] — higher, 112.843%
- CC(Cl)C(=O)N1CCCC(CC(=O)OC(C)(C)C)CC1 (centres unmarked) [6-P18, tert-butyl 2-[1-(2-chloropropanoyl)azepan-4-yl]acetate] — higher, 93.561%
- C=CC(=O)NCC1CCOC1 (centres unmarked) [1-H08, N-[(oxolan-3-yl)methyl]prop-2-enamide] — higher, 109.714%
- CCOC(=O)c1c(C)[nH]c(C(=O)CCl)c1C [10-J20, ethyl 5-(2-chloroacetyl)-2,4-dimethyl-1H-pyrrole-3-carboxylate] — higher, 109.375%
- N#CC(C(=O)CCl)=C1Nc2ccccc2S1 [10-J04, 4-chloro-2-(2,3-dihydro-1,3-benzothiazol-2-ylidene)-3-oxobutanenitrile] — lower, 43.75%
- Cc1ccc(NC(=O)N2CCN(C(=O)C=CCN(C)C)CC2)cc1 [10-H16, 4-[4-(dimethylamino)but-2-enoyl]-N-(4-methylphenyl)piperazine-1-carboxamide] — higher, 125%
- C=CC(=O)NCCC(=O)N1CCN(c2nc(C)cs2)CC1 [3-F07, N-{3-[4-(4-methyl-1,3-thiazol-2-yl)piperazin-1-yl]-3-oxopropyl}prop-2-enamide] — higher, 94.7323%
- CCC(C)n1nccc1NC(=O)C(C)Cl (centres unmarked) [6-A20, N-[1-(butan-2-yl)-1H-pyrazol-5-yl]-2-chloropropanamide] — higher, 96.2927%
- CC(Cl)C(=O)N(C(C)CS(C)(=O)=O)C1CC1 (centres unmarked) [6-L17, 2-chloro-N-cyclopropyl-N-(1-methanesulfonylpropan-2-yl)propanamide] — lower, 88.439%
- C=CC(=O)N1CCC(C(=O)Nc2[nH]nc(C(F)(F)F)c2C)CC1 [1-O04, N-[4-methyl-3-(trifluoromethyl)-1H-pyrazol-5-yl]-1-(prop-2-enoyl)piperidine-4-carboxamide] — lower, 87.2088%
- O=C(CCl)NCC(=O)Nc1ccc(F)c(F)c1F [4-D18, 2-chloro-N-{[(2,3,4-trifluorophenyl)carbamoyl]methyl}acetamide] — higher, 93.7589%
- Cc1cc(-n2c(C)cc(C=C(C#N)C(=O)NC3CCCC3)c2C)no1 [9-J15, 2-cyano-N-cyclopentyl-3-[2,5-dimethyl-1-(5-methyl-1,2-oxazol-3-yl)-1H-pyrrol-3-yl]prop-2-enamide] — higher, 97.0787%
- O=C(CCl)c1c(-c2ccc(F)cc2)[nH]c2ccccc12 [10-P04, 2-chloro-1-[2-(4-fluorophenyl)-1H-indol-3-yl]ethan-1-one] — higher, 137.813%
- CCOc1cc(C=C(C#N)C(=O)Nc2cccc(C)c2)ccc1O [9-G06, 2-cyano-3-(3-ethoxy-4-hydroxyphenyl)-N-(3-methylphenyl)prop-2-enamide] — higher, 106.367%
- N#CC(=Cc1ccc(N2CCOCC2)cc1)C(=O)Nc1ccccc1F [9-B03, 2-cyano-N-(2-fluorophenyl)-3-[4-(morpholin-4-yl)phenyl]prop-2-enamide] — higher, 95.2809%
- C=CC(=O)NC(C)c1nnnn1C (centres unmarked) [3-A15, N-[1-(1-methyl-1H-1,2,3,4-tetrazol-5-yl)ethyl]prop-2-enamide] — higher, 136.526%
- C=CC(=O)N1CCC(Cn2cnnc2)CC1 [3-P09, 1-{4-[(4H-1,2,4-triazol-4-yl)methyl]piperidin-1-yl}prop-2-en-1-one] — higher, 96.4737%
- CC(Cl)C(=O)N[C@H](CC(N)=O)c1cccc(Cl)c1 (stereo partly drawn) [7-O09, (3R)-3-(3-chlorophenyl)-3-(2-chloropropanamido)propanamide] — higher, 115.542%
- C=CCNC(=O)C(C#N)=Cc1c(C)nn(-c2ccc(F)cc2)c1Cl [9-L07, 3-[5-chloro-1-(4-fluorophenyl)-3-methyl-1H-pyrazol-4-yl]-2-cyano-N-(prop-2-en-1-yl)prop-2-enamide] — lower, 88.0899%
- O=C(CCl)NCc1cc([N+](=O)[O-])ccc1O [4-A05, 2-chloro-N-[(2-hydroxy-5-nitrophenyl)methyl]acetamide] — higher, 92.6155%
- CC(Cl)C(=O)NC1(c2noc(C(F)F)n2)CCC1 (centres unmarked) [6-B15, 2-chloro-N-{1-[5-(difluoromethyl)-1,2,4-oxadiazol-3-yl]cyclobutyl}propanamide] — lower, 91.5122%
